From publication PMC3736832 (Oncogene, 2012)

Target: His-RPS14 (human, UniProt P62263)
Assay: pull-down

B1: GST-MDM2/[…] (domain or fragment)
chain: MCNTNMSVPTDGAVTTSQIPASEQETLVRPKPLLLKLLKSVGAQKDTYTMKEVLFYLGQYIMTKRLYDEKQQHIVYCSNDLLGDLFGVPSFSVKEHRKIYTMIYRNLVVVNQQESSDSGTSVSENRCHLEGGSDQKDLVQELQEEKPSSSHLVSRPSTSSRRRAISETEENSDELSGERQRKRHKSDSISLSFDESLALCVIREICCERSSSSESTGTPSNPDLDAGV[omitted - about 80 residues]
Question: Does B1 bind?
Answer: binds
